Data as given in the supplement of paper PMC4967469.

Legend:
Assay in all cases: Viability of human cancer cell lines after 72 h of drug (GDSC screen)
Docetaxel = compound: CC(=O)O[C@@]12CO[C@@H]1C[C@H](O)[C@@]1(C)C(=O)[C@H](O)C3=C(C)[C@@H](OC(=O)[C@H](O)[C@@H](NC(=O)OC(C)(C)C)c4ccccc4)C[C@@](O)([C@@H](OC(=O)c4ccccc4)[C@H]21)C3(C)C [Docetaxel]; conditions: top dose 0.0125 µM
Protocol: (§1)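 Human cancer cell lines in 384-well plates, medium with 10% serum, drug for 72 h over a 256-fold dose range (nine 2-fold or five 4-fold steps up to the top dose). Adherent lines were fixed and stained with the nucleic acid dye Syto60, suspension lines read with resazurin; signal relative to control wells, capped at 0 and 100%. One two-parameter sigmoid per drug and line, fitted in a mixed model over all curves with the slope shared within a line.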

AMG-706 = compound: CC1(C)CNc2cc(NC(=O)c3cccnc3NCc3ccncc3)ccc21 [AMG-706]; conditions: top dose 2 µM; top dose inferred
Protocol: as §1

Cyclopamine = compound: CC1=C2C[C@H]3[C@@H](CC=C4C[C@@H](O)CC[C@@]43C)[C@@H]2CC[C@]12O[C@@H]1C[C@H](C)CN[C@H]1[C@H]2C [Cyclopamine]; conditions: top dose 16 µM; top dose inferred
Protocol: as §1

JNK Inhibitor VIII = compound: CCOc1nc(NC(=O)Cc2cc(OC)ccc2OC)cc(N)c1C#N [JNK Inhibitor VIII]; conditions: top dose 10 µM; top dose inferred
Protocol: as §1

NSC-207895 = compound: CN1CCN(c2ccc([N+](=O)[O-])c3no[n+]([O-])c23)CC1 [NSC-207895]; conditions: top dose 20 µM; top dose inferred
Protocol: as §1

FTI-277 = compound: COC(=O)[C@H](CCSC)NC(=O)c1ccc(NC[C@@H](N)CS)cc1-c1ccccc1 [FTI-277]; conditions: top dose 1.024 µM; top dose inferred
Protocol: as §1

YM155 = compound: COCC[n+]1c2c(n(Cc3cnccn3)c1C)C(=O)c1ccccc1C2=O [YM155]; conditions: top dose 5.12 µM
Protocol: as §1

NVP-TAE684 = compound: COc1cc(N2CCC(N3CCN(C)CC3)CC2)ccc1Nc1ncc(Cl)c(Nc2ccccc2S(=O)(=O)C(C)C)n1 [NVP-TAE684]; conditions: top dose 2 µM
Protocol: as §1

OSI-906 = compound: C[C@]1(O)C[C@@H](c2nc(-c3ccc4ccc(-c5ccccc5)nc4c3)c3c(N)nccn32)C1 [OSI-906]; conditions: top dose 2.56 µM; top dose inferred
Protocol: as §1

SB-715992 = compound: Cc1ccc(C(=O)N(CCCN)[C@@H](c2nc3cc(Cl)ccc3c(=O)n2Cc2ccccc2)C(C)C)cc1 [SB-715992]; conditions: top dose 0.128 µM; top dose inferred
Protocol: as §1

JQ1 = compound: Cc1sc2c(c1C)C(c1ccc(Cl)cc1)=N[C@@H](CC(=O)OC(C)(C)C)c1nnc(C)n1-2 [JQ1]
Protocol: as §1

Belinostat = compound: O=C(/C=C/c1cccc(S(=O)(=O)Nc2ccccc2)c1)NO [Belinostat]; conditions: top dose 20 µM; top dose inferred
Protocol: as §1

CGP-60474 = compound: OCCCNc1cc(-c2ccnc(Nc3cccc(Cl)c3)n2)ccn1 [CGP-60474]; conditions: top dose 0.256 µM; top dose inferred
Protocol: as §1

JNJ-26854165 = compound: c1ccc2c(CCNc3ccc(Nc4ccncc4)cc3)c[nH]c2c1 [JNJ-26854165]; conditions: top dose 10 µM
Protocol: as §1

[1] = top dose 1 µM, screen: GDSC drug entry 1218, top dose inferred
[2] = top dose 2.56 µM, screen: GDSC drug entry 163

Row | Cell Line | AUC (Docetaxel) | IC50 (Docetaxel) [nM] | AUC (AMG-706) | IC50 (AMG-706) [nM] | AUC (Cyclopamine) | IC50 (Cyclopamine) [nM] | AUC (JNK Inhibitor VIII) | IC50 (JNK Inhibitor VIII) [nM] | AUC (NSC-207895) | IC50 (NSC-207895) [nM] | AUC (FTI-277) | IC50 (FTI-277) [nM] | AUC (YM155) | IC50 (YM155) [nM] | AUC (NVP-TAE684) | IC50 (NVP-TAE684) [nM] | AUC (OSI-906) | IC50 (OSI-906) [nM] | AUC (SB-715992) | IC50 (SB-715992) [nM] | AUC (JQ1; [1]) | IC50 (JQ1; [1]) [nM] | AUC (JQ1; [2]) | IC50 (JQ1; [2]) [nM] | AUC (Belinostat) | IC50 (Belinostat) [nM] | AUC (CGP-60474) | IC50 (CGP-60474) [nM] | AUC (JNJ-26854165) | IC50 (JNJ-26854165) [nM]
1 | HD-MY-Z (Hodgkin lymphoma, adherent) | 0.591 | 1.39 | 0.98 | > 2000 | 0.965 | > 16000 | 0.979 | > 10000 | 0.83 | 12700 | 0.986 | > 1020 | 0.024 | < 20 | 0.916 | > 2000 | 0.986 | > 2560 | 0.692 | 27.8 | 0.982 | > 1000 | 0.976 | > 2560 | 0.397 | 651 | 0.685 | 52.8 | 0.814 | 5460
2 | HUTU-80 (digestive system, adherent) | 0.573 | 1.19 | 0.991 | > 2000 | 0.955 | > 16000 | 0.991 | > 10000 | 0.605 | 2310 | 0.984 | > 1020 | 0.015 | < 20 | 0.704 | 416 | 0.929 | > 2560 | 0.54 | 10.1 | 0.991 | > 1000 | 0.795 | 962 | 0.265 | 309 | 0.666 | 42.2 | 0.833 | 4960
3 | IST-MEL1 (melanoma, adherent) | 0.689 | 2.95 | 0.978 | > 2000 | 0.971 | > 16000 | 0.973 | > 10000 | 0.789 | 10800 | 0.963 | > 1020 | 0.035 | < 20 | 0.915 | > 2000 | 0.951 | > 2560 | 0.972 | > 128 | 0.978 | > 1000 | 0.665 | 506 | 0.406 | 658 | 0.69 | 60.8 | 0.85 | 9980
4 | IST-SL2 (small cell lung carcinoma, suspension) | 0.931 | > 12.5 | 0.975 | > 2000 | 0.905 | > 16000 | 0.989 | > 10000 | 0.988 | > 20000 | 0.988 | > 1020 | 0.988 | > 5120 | 0.9 | > 2000 | 0.977 | > 2560 | 0.664 | 22.8 | 0.976 | > 1000 | 0.752 | 844 | 0.988 | > 20000 | 0.565 | 24.1 | 0.862 | 8450
5 | JJN-3 (haematopoietic neoplasm, suspension) | 0.783 | 4.31 | 0.981 | > 2000 | 0.99 | > 16000 | 0.993 | > 10000 | 0.952 | > 20000 | 0.991 | > 1020 | 0.017 | < 20 | 0.817 | 873 | 0.936 | > 2560 | 0.69 | 24.3 | 0.991 | > 1000 | 0.628 | 336 | 0.231 | 249 | 0.681 | 46 | 0.916 | > 10000
6 | JM1 (B-cell lymphoma, suspension) | 0.957 | > 12.5 | 0.989 | > 2000 | 0.978 | > 16000 | 0.975 | > 10000 | 0.465 | 1020 | 0.991 | > 1020 | 0.017 | < 20 | 0.822 | 955 | 0.97 | > 2560 | 0.787 | 47.2 | 0.983 | > 1000 | 0.671 | 443 | 0.078 | < 78.1 | 0.705 | 54.8 | 0.932 | > 10000
7 | KARPAS-45 (lymphoblastic leukaemia, suspension) | 0.944 | > 12.5 | 0.991 | > 2000 | 0.974 | > 16000 | 0.989 | > 10000 | 0.851 | 11500 | 0.991 | > 1020 | 0.017 | < 20 | 0.822 | 919 | 0.954 | > 2560 | 0.549 | 10.7 | 0.991 | > 1000 | 0.561 | 227 | 0.086 | < 78.1 | 0.814 | 111 | 0.934 | > 10000
8 | L-540 (Hodgkin lymphoma, suspension) | 0.918 | > 12.5 | 0.99 | > 2000 | 0.983 | > 16000 | 0.99 | > 10000 | 0.98 | > 20000 | 0.94 | > 1020 | 0.983 | > 5120 | 0.899 | > 2000 | 0.986 | > 2560 | 0.888 | 117 | 0.989 | > 1000 | 0.953 | > 2560 | 0.988 | > 20000 | 0.765 | 84 | 0.922 | > 10000

The IC50 comes from the fitted curve, where viability falls to half of the control; where the fit passes the top or lowest dose, that dose stands as a limit. AUC, from the same fit, is the share of area under the viability curve across the 256-fold dose range; values near 1 show little effect. For part of these data: The top dose, if marked as inferred, comes from the curve model; the source does not state it. For part of these data: An entry number marks a drug with two screens in the source, which often give different values.
